Reference: the antibiotic and cytotoxicity screens of Wong et al. (2023)
Some of the results follow.

Experiments:
HSkMC = human skeletal muscle cells; assay: cytotoxicity call (relative viability < 0.9); details: 10 µM
HepG2 = assay: cytotoxicity call (relative viability < 0.9); details: 10 µM
S. aureus RN4220 = assay: growth inhibition call (relative growth <= 0.2); details: 50 µM

C[C@@H]1CN([C@@H](C)CO)C(=O)c2cc(NC(=O)Nc3ccc(C(F)(F)F)cc3)ccc2O[C@@H](C)CCCCO[C@@H]1CN(C)S(=O)(=O)c1cn(C)cn1
cytotoxicity call (HSkMC): inactive
cytotoxicity call (HepG2): inactive
growth inhibition call (S. aureus RN4220): inactive

Cn1cnc(S(=O)(=O)N2C[C@@H](O)COC[C@@H]3O[C@@H](CC(=O)NC4CCCC4)CC[C@H]32)c1
cytotoxicity call (HSkMC): inactive
cytotoxicity call (HepG2): inactive
growth inhibition call (S. aureus RN4220): inactive

CCCCN(CCCC)CCCC.Nc1ncnc2c1ncn2[C@H]1O[C@@H](COP(=O)(O)O)[C@@H](O)[C@@H]1O
cytotoxicity call (HSkMC): inactive
cytotoxicity call (HepG2): inactive
growth inhibition call (S. aureus RN4220): inactive

C[C@H](CO)N1C[C@H](C)[C@H](CN(C)S(=O)(=O)c2cn(C)cn2)OCc2cnnn2CCCC1=O
cytotoxicity call (HSkMC): inactive
cytotoxicity call (HepG2): inactive
growth inhibition call (S. aureus RN4220): inactive

C[C@@H]1CN([C@H](C)CO)C(=O)c2cccc(NS(=O)(=O)c3ccccc3)c2O[C@H]1CN(C)Cc1ccc(Oc2ccccc2)cc1
cytotoxicity call (HSkMC): inactive
cytotoxicity call (HepG2): inactive
growth inhibition call (S. aureus RN4220): inactive

CC(C)C[C@@H]1NC(=O)[C@H]2C[C@@H](C(=O)NCCCC[N+](C)(C)C)[C@@H](c3cccc(OCCO)c3)N2C1=O
cytotoxicity call (HSkMC): inactive
cytotoxicity call (HepG2): inactive
growth inhibition call (S. aureus RN4220): inactive

C[C@@H]1CCCCO[C@H](CN(C)Cc2ccc3c(c2)OCO3)[C@H](C)CN([C@@H](C)CO)C(=O)c2cc(NC(=O)C3CCCCC3)ccc2O1
cytotoxicity call (HSkMC): inactive
cytotoxicity call (HepG2): active
growth inhibition call (S. aureus RN4220): inactive

C[C@H]1CN([C@@H](C)CO)C(=O)Cc2cc(NS(=O)(=O)c3cn(C)cn3)ccc2O[C@@H]1CN(C)CC1CC1
cytotoxicity call (HSkMC): inactive
cytotoxicity call (HepG2): inactive
growth inhibition call (S. aureus RN4220): inactive

C[C@@H]1CCCCO[C@@H](CN(C)C(=O)CCC(F)(F)F)[C@@H](C)CN([C@H](C)CO)C(=O)c2cc(NC(=O)CCCCCC(=O)Nc3ccccc3N)ccc2O1
cytotoxicity call (HSkMC): inactive
cytotoxicity call (HepG2): inactive
growth inhibition call (S. aureus RN4220): inactive

C[C@@H]1CN([C@@H](C)CO)C(=O)c2cc(NC(=O)Cn3cnnn3)ccc2O[C@H]1CN(C)C(=O)Nc1ccc2c(c1)OCO2
cytotoxicity call (HSkMC): inactive
cytotoxicity call (HepG2): inactive
growth inhibition call (S. aureus RN4220): inactive

COc1ccc2c3c(n(c2c1)C)[C@H](CO)N(Cc1ccccc1F)C[C@]13CN(C1)C(=O)C1CCOCC1
cytotoxicity call (HSkMC): inactive
cytotoxicity call (HepG2): inactive
growth inhibition call (S. aureus RN4220): inactive

CN(C)CCCNC(=O)C[C@@H]1CC[C@H]2[C@@H](COc3ccc(NC(=O)NC4CCCC4)cc3C(=O)N2C)O1
cytotoxicity call (HSkMC): inactive
cytotoxicity call (HepG2): inactive
growth inhibition call (S. aureus RN4220): inactive

Cc1ccc(S(=O)(=O)N(C)C[C@@H]2Oc3ccc(NS(C)(=O)=O)cc3C(=O)N([C@@H](C)CO)C[C@@H]2C)cc1
cytotoxicity call (HSkMC): inactive
cytotoxicity call (HepG2): inactive
growth inhibition call (S. aureus RN4220): inactive

C[C@@H]1CCCCO[C@@H](CN(C)C(=O)C2CCCCC2)[C@@H](C)CN([C@@H](C)CO)C(=O)c2cc(NC(=O)Nc3ccccc3)ccc2O1
cytotoxicity call (HSkMC): inactive
cytotoxicity call (HepG2): active
growth inhibition call (S. aureus RN4220): inactive

CC(=O)NC(=O)N[C@H]1CSC[C@@H]1OC(C)=O
cytotoxicity call (HSkMC): inactive
cytotoxicity call (HepG2): inactive
growth inhibition call (S. aureus RN4220): inactive

C[C@@H]1CN([C@@H](C)CO)C(=O)c2cccc(NC(=O)Nc3cccc4ccccc34)c2O[C@H]1CN(C)S(=O)(=O)c1ccc(OC(F)(F)F)cc1
cytotoxicity call (HSkMC): inactive
cytotoxicity call (HepG2): active
growth inhibition call (S. aureus RN4220): inactive

CC(=O)O[C@@H]1[C@@H]2C[C@@H]([C@H]1OC(C)=O)[C@@H]1C(=O)N(C)C(=O)[C@@H]21
cytotoxicity call (HSkMC): inactive
cytotoxicity call (HepG2): active
growth inhibition call (S. aureus RN4220): inactive

CC(C)NC(=O)Nc1ccc2c(c1)C(=O)N([C@H](C)CO)C[C@H](C)[C@H](CN(C)S(=O)(=O)c1ccc(F)cc1)O2
cytotoxicity call (HSkMC): inactive
cytotoxicity call (HepG2): inactive
growth inhibition call (S. aureus RN4220): inactive

COc1ccc([C@H]([C@@H](O)Cc2ccccc2)N(C[C@H](/C=C/c2ccccc2)CC(=O)N(C)C)[C@@H](Cc2ccccc2)C(OC)OC)cc1
cytotoxicity call (HSkMC): inactive
cytotoxicity call (HepG2): active
growth inhibition call (S. aureus RN4220): inactive

Cc1noc(C)c1NC(=O)N(C)C[C@@H]1OCCCC[C@H](C)Oc2ccc(NS(=O)(=O)c3cccs3)cc2C(=O)N([C@@H](C)CO)C[C@H]1C
cytotoxicity call (HSkMC): inactive
cytotoxicity call (HepG2): inactive
growth inhibition call (S. aureus RN4220): inactive

C[C@@H](N)C(=O)OC(C)(C)Cc1ccc(Cl)cc1
cytotoxicity call (HSkMC): inactive
cytotoxicity call (HepG2): inactive
growth inhibition call (S. aureus RN4220): inactive

CC(C)NC(=O)Nc1cccc2c1O[C@H](CN(C)Cc1ccc(-c3ccccc3)cc1)[C@H](C)CN([C@H](C)CO)C2=O
cytotoxicity call (HSkMC): inactive
cytotoxicity call (HepG2): inactive
growth inhibition call (S. aureus RN4220): inactive

C[C@@H]1CN([C@@H](C)CO)C(=O)Cc2cc(NC(=O)CCCCCC(=O)Nc3ccccc3N)ccc2O[C@H]1CN(C)C(=O)Nc1ccc(F)cc1
cytotoxicity call (HSkMC): inactive
cytotoxicity call (HepG2): inactive
growth inhibition call (S. aureus RN4220): inactive

C[C@@H]1CCCCO[C@H](CN(C)C(=O)Nc2ccccc2)[C@H](C)CN([C@@H](C)CO)C(=O)c2cc(NC(=O)NC3CCCCC3)ccc2O1
cytotoxicity call (HSkMC): inactive
cytotoxicity call (HepG2): inactive
growth inhibition call (S. aureus RN4220): inactive
